{"source": "PubChem BioAssay AID504333", "about": "(National Center for Advancing Translational Sciences (NCATS), 2011)", "note": "Screen size: about 360,000 compounds; about 16,000 (4.4%) were called active. Inconclusive results, whose numbers are uncertain, are shown with a selection of clear calls. Calls come from the whole dose curve; as a rule, active = well fitted inhibition curve with a large enough effect; inconclusive = small, poorly fitted or top-dose-only effect; inactive = no such curve, though single readings can be large or run the other way. A potency beside an inconclusive call is a rough fit, not a confirmed value. % is set by controls: 0 for no effect and ±100 for the full control effect; potency is the fitted concentration of half-maximal effect; tags give direction and shape of the fitted curve.", "data": [{"molecular_target": "Bromodomain adjacent to zinc finger domain protein 2B (Homo sapiens) (UniProt Q9UIF8)", "sequence (Q9UIF8 whole entry, looked up, the tested form may be a part)": "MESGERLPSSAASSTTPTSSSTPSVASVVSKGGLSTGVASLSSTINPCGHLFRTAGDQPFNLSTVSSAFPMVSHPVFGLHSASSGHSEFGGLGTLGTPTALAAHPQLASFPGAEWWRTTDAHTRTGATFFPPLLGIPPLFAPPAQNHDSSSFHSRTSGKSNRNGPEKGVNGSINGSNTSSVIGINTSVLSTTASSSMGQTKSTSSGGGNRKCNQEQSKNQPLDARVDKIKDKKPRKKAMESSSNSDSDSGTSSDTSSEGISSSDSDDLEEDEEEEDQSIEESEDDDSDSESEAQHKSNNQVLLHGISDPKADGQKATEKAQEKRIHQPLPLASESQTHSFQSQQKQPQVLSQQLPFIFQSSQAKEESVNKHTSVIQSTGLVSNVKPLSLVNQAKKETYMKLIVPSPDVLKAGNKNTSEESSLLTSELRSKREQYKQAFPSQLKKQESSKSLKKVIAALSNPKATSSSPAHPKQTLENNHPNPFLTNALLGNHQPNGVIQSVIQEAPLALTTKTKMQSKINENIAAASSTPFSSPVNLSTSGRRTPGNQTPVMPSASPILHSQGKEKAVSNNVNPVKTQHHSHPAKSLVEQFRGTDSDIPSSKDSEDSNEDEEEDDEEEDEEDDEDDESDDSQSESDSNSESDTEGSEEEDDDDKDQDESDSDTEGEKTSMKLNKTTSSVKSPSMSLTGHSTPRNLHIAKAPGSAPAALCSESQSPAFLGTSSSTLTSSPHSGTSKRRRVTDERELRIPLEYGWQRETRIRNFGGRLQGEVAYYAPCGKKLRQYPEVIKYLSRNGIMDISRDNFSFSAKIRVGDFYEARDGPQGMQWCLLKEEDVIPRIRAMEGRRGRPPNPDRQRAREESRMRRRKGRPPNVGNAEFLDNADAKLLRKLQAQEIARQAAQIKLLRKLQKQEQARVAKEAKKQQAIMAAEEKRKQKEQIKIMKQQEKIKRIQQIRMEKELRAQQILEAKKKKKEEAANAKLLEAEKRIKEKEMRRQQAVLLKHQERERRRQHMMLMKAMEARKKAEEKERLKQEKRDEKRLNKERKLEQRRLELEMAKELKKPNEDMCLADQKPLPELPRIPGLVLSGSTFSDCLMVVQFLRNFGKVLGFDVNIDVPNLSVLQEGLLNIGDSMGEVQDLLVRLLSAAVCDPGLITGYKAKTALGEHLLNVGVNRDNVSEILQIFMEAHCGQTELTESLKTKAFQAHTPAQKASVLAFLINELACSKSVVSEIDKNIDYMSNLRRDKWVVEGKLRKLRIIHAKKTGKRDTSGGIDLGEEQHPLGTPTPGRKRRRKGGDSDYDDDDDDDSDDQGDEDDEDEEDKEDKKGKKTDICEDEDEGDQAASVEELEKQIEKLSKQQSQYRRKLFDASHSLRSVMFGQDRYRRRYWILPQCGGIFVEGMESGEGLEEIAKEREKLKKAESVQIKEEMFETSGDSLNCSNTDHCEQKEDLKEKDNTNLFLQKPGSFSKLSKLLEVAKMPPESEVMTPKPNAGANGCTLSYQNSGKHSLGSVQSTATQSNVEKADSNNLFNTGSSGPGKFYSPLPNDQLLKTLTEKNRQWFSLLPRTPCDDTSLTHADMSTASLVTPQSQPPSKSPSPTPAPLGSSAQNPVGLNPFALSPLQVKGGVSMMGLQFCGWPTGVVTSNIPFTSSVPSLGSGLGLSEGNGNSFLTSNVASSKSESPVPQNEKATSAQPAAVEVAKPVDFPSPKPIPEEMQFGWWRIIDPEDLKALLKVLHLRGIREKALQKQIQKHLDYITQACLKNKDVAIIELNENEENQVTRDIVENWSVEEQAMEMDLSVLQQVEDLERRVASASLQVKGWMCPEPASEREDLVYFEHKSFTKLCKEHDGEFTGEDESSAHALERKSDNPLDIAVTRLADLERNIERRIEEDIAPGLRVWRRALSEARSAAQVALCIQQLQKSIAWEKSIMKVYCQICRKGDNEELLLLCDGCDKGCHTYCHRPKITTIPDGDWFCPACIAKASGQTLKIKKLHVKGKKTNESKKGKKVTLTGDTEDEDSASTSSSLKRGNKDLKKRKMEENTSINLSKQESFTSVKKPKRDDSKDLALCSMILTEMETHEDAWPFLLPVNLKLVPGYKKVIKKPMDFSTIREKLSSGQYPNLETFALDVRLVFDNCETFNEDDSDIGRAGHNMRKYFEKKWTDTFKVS", "test": "qHTS Assay for Inhibitors of BAZ2B; note: nearly all actives have a fitted effect of over 60% in size", "details": "AlphaScreen BAZ2B-H3K14Ac peptide displacement; activity change, negative = inhibition: at 114 µM (top of the series) unless noted", "outline": "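Compounds, titrated to a top concentration of 110 uM, were incubated 30 min at room temperature with preformed BAZ2B/acetyl-K14 H3 peptide complex (50 nM each). Proximity signal was measured by AlphaScreen after 20 min with beads.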", "values": [{"smiles": "S=c1[nH]nc(-c2cc(-c3ccco3)[nH]n2)n1-c1ccccc1Cl", "Potency": "active: 50.1 µM"}, {"smiles": "CC(=O)Nc1nc(C)c(-c2csc(Nc3ccc(O)cc3)n2)s1", "Potency": "active: 50.1 µM"}, {"smiles": "COc1ccc(NC(=O)CN2C(=O)CSc3ccc(S(=O)(=O)N(C)C)cc32)cc1Cl", "activity change, negative = inhibition": "inactive: -4.45%"}, {"smiles": "Cc1[nH]cnc1CSCc1ccc(F)cc1", "Potency": "inconclusive: 89.1 µM [inhibitor, single point]"}, {"smiles": "Cc1ccc2occ(CC(=O)Nc3ccc(S(=O)(=O)N4CCCC(C)C4)cc3)c2c1", "note": "(configuration not stated)", "Potency": "inconclusive: 79.4 µM [inhibitor, partial curve]"}, {"smiles": "CC(C)(c1cc(Br)c(O)c(Br)c1)c1cc(Br)c(O)c(Br)c1", "Potency": "active: 56.2 µM"}, {"smiles": "C/C(=N\\NC(=S)NCc1ccccc1)c1ccco1", "Potency": "inconclusive: 50.1 µM [inhibitor, partial curve]"}, {"smiles": "O=C(NCc1ccncc1)C(=O)Nc1nccs1", "Potency": "inconclusive: 79.4 µM [inhibitor, partial curve]"}, {"smiles": "CC1(C)C[C@H](O)[C@]2(CO)CC[C@]3(C)C(=CCC4[C@@]5(C)CC[C@H](O)C(C)(C)C5CC[C@]43C)[C@@H]2C1", "note": "(some centres not stated)", "activity change, negative = inhibition": "inactive: 3.04%"}, {"smiles": "COc1ccc(-c2c(-c3ccc(O)cc3O)n[nH]c2C)cc1OC", "Potency": "inconclusive: 0.631 µM [inhibitor, full curve, poor fit]"}, {"smiles": "CCn1c(CNc2ccc(OC)cc2)nnc1SCC(=O)c1ccc(OC)cc1", "Potency": "inconclusive: 35.5 µM [inhibitor, partial curve]"}, {"smiles": "Cc1cc(N2CCN(C)CC2)nc2ccc(NC(=S)N3CCN(c4ccccn4)CC3)cc12", "Potency": "inconclusive: 70.8 µM [inhibitor, partial curve]"}, {"smiles": "COc1cccc(CNC(=O)C2CCN(Cc3cc4ccccc4n3Cc3ccc(C)cc3)CC2)c1", "activity change, negative = inhibition": "inactive: -20.8%"}, {"smiles": "CC1=NN(c2ccccc2)C(=O)/C1=C\\c1cc(C)n(C)c1C", "Potency": "inconclusive: 10 µM [inhibitor, full curve]"}, {"smiles": "Cc1ccc(S(=O)(=O)c2cnc(-c3ccccc3)nc2N2CCN(C)CC2)cc1", "Potency": "inconclusive: 22.4 µM [inhibitor, full curve]"}, {"smiles": "CCc1ccc(NC(=O)c2ccc(NC(=O)C3CCCO3)cc2)cc1", "note": "(configuration not stated)", "activity change, negative = inhibition": "inactive: -7.03%"}, {"smiles": "COc1ccc(-c2nc(CS(=O)(=O)CC(=O)NCCc3cc(OC)ccc3OC)c(C)o2)cc1", "Potency": "inconclusive: 50.1 µM [inhibitor, partial curve]"}, {"smiles": "COc1ccc(C(=O)NC(=S)Nc2ccc(N3CCOCC3)cc2)cc1Cl", "Potency": "active: 22.4 µM"}, {"smiles": "CCOC(=O)c1sc(NC(=O)c2ccc(S(=O)(=O)N3CCCCC3)cc2)nc1-c1ccccc1", "activity change, negative = inhibition": "inactive: 7.4%"}, {"smiles": "COc1ccc(-n2cc(C(=O)Nc3cc(F)ccc3F)c3ccccc3c2=O)cc1", "Potency": "inconclusive: 50.1 µM [inhibitor, partial curve]"}, {"smiles": "CCOc1ccc(NC(=O)N(CCC(C)C)C(C)c2ccco2)cc1", "note": "(configuration not stated)", "Potency": "inconclusive: 79.4 µM [inhibitor, single point]"}, {"smiles": "O=C(O)COc1ccccc1/C=N/NC(=O)c1ccc(F)cc1", "Potency": "inconclusive: 89.1 µM [inhibitor, single point]"}, {"smiles": "Clc1ccc(CONc2ncnc3nonc23)c(Cl)c1", "activity change, negative = inhibition": "inactive: -7.8%"}, {"smiles": "CC(C)c1ccc(C2C3CSCC=C3C(C#N)=C(N)C2(C#N)C#N)cc1", "note": "(configuration not stated)", "Potency": "inconclusive: 44.7 µM [inhibitor, partial curve]"}, {"smiles": "CN(C)CCCC1(c2ccc(F)cc2)OCc2cc(C#N)ccc21", "note": "(configuration not stated)", "Potency": "inactive"}, {"smiles": "O=C(/C=C/c1ccc(Cl)cc1)N1CCN(c2c(Cl)cccc2[N+](=O)[O-])CC1", "Potency": "inconclusive: 10 µM [inhibitor, full curve]"}, {"smiles": "CCOc1ccc(C(=O)NC(=S)Nc2ccc(N3CCCCC3)cc2)cc1[N+](=O)[O-]", "Potency": "active: 8.91 µM"}, {"smiles": "Cc1ccc(N(C)S(=O)(=O)c2nnc(NC(=O)CC(C)C)s2)cc1", "activity change, negative = inhibition": "inactive: 13.6%"}, {"smiles": "O=C(N/N=C/c1cc(Cl)cc([N+](=O)[O-])c1O)C(O)(c1ccccc1)c1ccccc1", "Potency": "inconclusive: 39.8 µM [inhibitor, partial curve]"}, {"smiles": "CCN(CC)c1ccc(NC(=O)c2sc3ccccc3c2Cl)cc1", "Potency": "active: 11.2 µM"}, {"smiles": "CCCSCCCNC(=O)c1ccc(NC(=O)C2=CSCCO2)cc1", "activity change, negative = inhibition": "inactive: -12.5%"}, {"smiles": "CCN(CC)CCC(c1ccc(N(C)C)cc1)c1c(OC)cc(OC)c2c(-c3ccccc3)cc(=O)oc12", "note": "(configuration not stated)", "Potency": "active: 31.6 µM"}, {"smiles": "CCOC(=O)C1CCN(Cc2ccc3ccccc3c2)CC1", "Potency": "inconclusive: 89.1 µM [inhibitor, single point]"}, {"smiles": "CNC(=S)N(CCc1ccc(OC)c(OC)c1)Cc1cc2c(C)cc(C)cc2[nH]c1=O", "Potency": "inconclusive: 79.4 µM [inhibitor, single point]"}, {"smiles": "Cc1ccc(S(=O)(=O)Nc2nc(-c3ccc(F)cc3)cs2)cc1", "Potency": "inconclusive: 70.8 µM [inhibitor, single point]"}, {"smiles": "CCOCCCNC(=O)CC1Oc2ccc(C)cc2NC1=O", "note": "(configuration not stated)", "activity change, negative = inhibition": "inactive: 3.47%"}, {"smiles": "Cc1ccc(-c2c(C(=O)NCc3ccc(F)cc3)oc(=O)c3ccccc23)cc1", "activity change, negative = inhibition": "inactive: 1.17%"}, {"smiles": "Cc1ccc(Cn2c(/C=C/c3ccco3)nc3ccccc32)cc1", "Potency": "inconclusive: 39.8 µM [inhibitor, partial curve]"}, {"smiles": "CS(=O)(=O)Nc1ccc(C(=O)NCCSCc2ccco2)cc1", "activity change, negative = inhibition": "inactive: 4.8%"}, {"smiles": "CC1(C)SC(=S)N(/N=C/c2ccccc2O)C1N(O)C(=O)Nc1ccccc1", "note": "(configuration not stated)", "Potency": "inconclusive: 31.6 µM [inhibitor, partial curve]"}, {"smiles": "Cn1nc(C(=O)NCc2ccc(F)cc2)c2c1-c1ccccc1SC2", "Potency": "active: 10 µM"}, {"smiles": "COc1ccc(OCCSCc2nnc(NC(=O)Nc3ccc(Cl)cc3)s2)cc1", "activity change, negative = inhibition": "inactive: 2.61%"}, {"smiles": "CCN(CC)S(=O)(=O)c1ccc(N/N=C/c2ccc(O)cc2O)nc1", "Potency": "active: 25.1 µM"}, {"smiles": "COc1ccc(C(=O)NC(=S)Nc2ccc(S(=O)(=O)Nc3cc(OC)ncn3)cc2)cc1", "Potency": "inconclusive: 89.1 µM [inhibitor, single point]"}, {"smiles": "Brc1ccccc1C1=Nn2c(nnc2-c2ccco2)SC1", "activity change, negative = inhibition": "inactive: -18.8%"}, {"smiles": "O=C(NCCCn1ccnc1)c1ccc(Br)c(S(=O)(=O)N2CCOCC2)c1", "Potency": "inconclusive: 79.4 µM [inhibitor, single point]"}, {"smiles": "Cc1ccc(NC(=O)COC(=O)CCC(=O)c2ccc(C(C)(C)C)cc2)c([N+](=O)[O-])c1", "Potency": "inconclusive: 10 µM [inhibitor, full curve, poor fit]"}, {"smiles": "CCC(c1nnnn1Cc1ccc2c(c1)OCO2)N1CCN(c2ccc(F)cc2)CC1", "note": "(configuration not stated)", "Potency": "inconclusive: 79.4 µM [inhibitor, single point]"}, {"smiles": "CCN(CC)C(=O)c1cc([N+](=O)[O-])cc2c1-c1ccc([N+](=O)[O-])cc1C2=C(C#N)C#N", "Potency": "inconclusive: 50.1 µM [inhibitor, partial curve]"}, {"smiles": "C=CCn1c(SCC(O)Cn2c3ccccc3c3ccccc32)nnc1-c1ccco1", "note": "(configuration not stated)", "Potency": "inconclusive: 70.8 µM [inhibitor, single point]"}, {"smiles": "Cc1cccc(OCC(=O)N(C)CCc2ccccn2)c1", "Potency": "active: 35.5 µM"}, {"smiles": "COc1ccc2cc3c(N)nn(C(=O)c4cccc([N+](=O)[O-])c4)c3nc2c1", "Potency": "inconclusive: 89.1 µM [inhibitor, single point]"}, {"smiles": "COc1ccc(N=C(NN)c2ccc3ccccc3n2)cc1", "Potency": "inconclusive: 50.1 µM [inhibitor, partial curve]"}, {"smiles": "CCOC(=O)c1c(NC(=O)COC(=O)c2ccccn2)sc2c1CCC2", "Potency": "inconclusive: 89.1 µM [inhibitor, single point]"}, {"smiles": "O=C(Cn1cnc2onc(-c3ccc(F)cc3)c2c1=O)Nc1cccc(C(F)(F)F)c1", "activity change, negative = inhibition": "inactive: 12.6% [at 57.1 µM]"}, {"smiles": "O=C(NCSc1ccncn1)c1ccccc1", "Potency": "inconclusive: 89.1 µM [inhibitor, single point]"}, {"smiles": "COc1cc(/C=C/C(=O)Nc2cccc(S(=O)(=O)NC3=NCCCCC3)c2)ccc1OCC#N", "activity change, negative = inhibition": "inactive: 5.02%"}, {"smiles": "COc1ccc(CCNS(=O)(=O)c2ccc(N3CCCCS3(=O)=O)cc2)cc1OC", "activity change, negative = inhibition": "inactive: -2.57%"}, {"smiles": "Cc1nc2c(-c3ccccc3)c(C)nn2c(C)c1CCC(=O)NCc1ccc(Cl)cc1", "activity change, negative = inhibition": "inactive: -0.351%"}, {"smiles": "CC1=CC(c2ccccc2)n2nc(NC(=O)CCC(=O)O)nc2N1", "note": "(configuration not stated)", "Potency": "inconclusive: 79.4 µM [inhibitor, single point]"}, {"smiles": "COc1ccc(-c2csc(NNC3=NCCCCC3)n2)cc1", "Potency": "inconclusive: 50.1 µM [inhibitor, partial curve]"}, {"smiles": "CCC1(c2ccccc2)NC(=O)N(CC(=O)Nc2cc(S(=O)(=O)N3CCOCC3)ccc2OC(C)C)C1=O", "note": "(configuration not stated)", "activity change, negative = inhibition": "inactive: -0.683%"}, {"smiles": "CCCc1cnc2c(c1SCC(=O)Nc1c(C)cc(C)cc1C)c(=O)n(C)c(=O)n2C", "Potency": "inconclusive: 89.1 µM [inhibitor, single point]"}, {"smiles": "Cc1ccc(CN2CCSCC2)c(C)c1", "Potency": "inconclusive: 79.4 µM [inhibitor, single point]"}, {"smiles": "Cc1cccc(-c2nc(CN3CCCC(C(=O)NCc4ccc(Cl)cc4)C3)c(C)o2)c1", "note": "(configuration not stated)", "Potency": "inconclusive: 39.8 µM [inhibitor, partial curve]"}, {"smiles": "CCN(CC)C(=O)CC(c1ccc(N(C)C)cc1)c1c(OC)cc(OC)c2ccc(=O)oc12", "note": "(configuration not stated)", "Potency": "inconclusive: 70.8 µM [inhibitor, single point]"}, {"smiles": "O=[N+]([O-])c1cccc(CN2CCN(c3ncccn3)CC2)c1", "Potency": "inconclusive: 79.4 µM [inhibitor, single point]"}, {"smiles": "O=C(NCc1ccco1)C1CCN(Cc2ccc(F)cc2)CC1", "Potency": "active: 50.1 µM"}, {"smiles": "CCN(C(=O)CN1C(=O)COc2ccc(S(=O)(=O)N3CCOCC3)cc21)c1cccc(C)c1", "activity change, negative = inhibition": "inactive: -13.9%"}, {"smiles": "CCOC(=O)C(=O)Nc1ccc2c(c1)OCO2", "activity change, negative = inhibition": "inactive: -24.5%"}, {"smiles": "COC(=O)c1[nH]c(C)c(/C(O)=C2\\C(=O)C(=O)N(CCN3CCOCC3)C2c2ccco2)c1C", "note": "(configuration not stated)", "activity change, negative = inhibition": "inactive: 0.492%"}, {"smiles": "CN(C)c1cccc(C(=O)OCC(=O)N(C)c2ccccc2)c1", "Potency": "inconclusive: 70.8 µM [inhibitor, single point]"}]}]}
